The list shows a part of the results. At the low end of the ranking the order means little.
Target: GST-SBP-SLBP (stem-loop binding protein) (UniProt Q14493)
Assay: targeted RNA Bind-n-Seq;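 further: DESeq read counts versus GST-SBP nonspecific binding control pulldown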
Settings: RBNS binding buffer: 25 mM Tris pH 7.5, 150 mM KCl, 3 mM MgCl2, 0.1% Tween, 0.5 mg/mL BSA, 1 mM DTT; 27 nM protein, 750 pM RNA pool; temperature not stated; high values mean tight binding

Sequence | binding signal (log2 fold change)
GGUCACGUCUCAAUCAACUCUUCUUCCAGGGAAAGCCCUGGUUUACUCAACAGCUCGCAGUCAAG | -0.169
GGUCACGUCUCAAUCAACUCUAUCUCAGGAGUUUACUCCUGUUUUCUCAACAGCUCGCAGUCAAG | 0.272
GGUCACGUCUCAAUCAACUCAGUCCCCAGGGAAAACCCUGGUAUAUUCAACAGCUCGCAGUCAAG | -0.102
GGUCACGUCUCAAUCAACUCCCAAGAGGGGGGGAAAACCCCUUUGCCCUCAACAUCAACAGCUCGCAGUCAAG | -0.104
GGUCACGUCUCAAUCAACUCUUAAGAGGGGGGGAAAACCCCUUUGCCCUCAUUCUCAACAGCUCGCAGUCAAG | -0.114
GGUCACGUCUCAAUCAACUCAUUCCCCAGGGAAAGCCCUGGCUAUCUCAACAGCUCGCAGUCAAG | 0.129
GGUCACGUCUCAAUCAACUCCUAAGAGGGGGGGAAAACCCCUUUGCCCUCAAAUUCAACAGCUCGCAGUCAAG | -0.483
GGUCACGUCUCAAUCAACUCAUUCCCCAGGGAAAUCCCUGGCUAUCUCAACAGCUCGCAGUCAAG | 0.0746
GGUCACGUCUCAAUCAACUCAACUUCCAGGGAAACCCCUGGCUAUCUCAACAGCUCGCAGUCAAG | -0.0646
GGUCACGUCUCAAUCAACUCAUCCGCAGGAGUUUCCUCCUGGUAUCUCAACAGCUCGCAGUCAAG | 0.095
GGUCACGUCUCAAUCAACUCUUCCCCCAGGGAAAGCCCUGGUUUAUUCAACAGCUCGCAGUCAAG | -0.0573
GGUCACGUCUCAAUCAACUCUUCCCCAGGAGUUUACUCCUGUAAUGUCAACAGCUCGCAGUCAAG | 0.0804
GGUCACGUCUCAAUCAACUCAUAAGAGGGGGGGAAAACCCCUUUACCCUCAUCUUCAACAGCUCGCAGUCAAG | -0.414
GGUCACGUCUCAAUCAACUCAUCCUCAGGAGUUUACUCCUGCAAACUCAACAGCUCGCAGUCAAG | 0.0302
GGUCACGUCUCAAUCAACUCAAUUUCCAGGGAAACCCCUGGCUUUUUCAACAGCUCGCAGUCAAG | -0.109
GGUCACGUCUCAAUCAACUCUAUAGAGGGGGGGAAAACCCCUUUACCCUCCACUUCAACAGCUCGCAGUCAAG | -0.247
GGUCACGUCUCAAUCAACUCUAUUUCAGGAGUUUCCUCCUGCAAACUCAACAGCUCGCAGUCAAG | 0.0821
GGUCACGUCUCAAUCAACUCUUUUUCCAGGGAAAUCCCUGGUUAUGUCAACAGCUCGCAGUCAAG | -0.013
GGUCACGUCUCAAUCAACUCAAUCCCAGGAGUUUUCUCCUGCUUAUUCAACAGCUCGCAGUCAAG | 0.12
GGUCACGUCUCAAUCAACUCCCUAGAGGGGGGGAAAACCCCUUUGCCCUCAUCAUCAACAGCUCGCAGUCAAG | 0.00487
GGUCACGUCUCAAUCAACUCUAUCCCCAGGGAAACCCCUGGUUAACUCAACAGCUCGCAGUCAAG | 0.253
GGUCACGUCUCAAUCAACUCAGAAGAGGGGGGGAAAACCCCUUUACCCUCCACAUCAACAGCUCGCAGUCAAG | -0.129
GGUCACGUCUCAAUCAACUCUACUCCAGGAGUUUCCUCCUGCAAUCUCAACAGCUCGCAGUCAAG | 0.261
GGUCACGUCUCAAUCAACUCUAUCUCCAGGGAAAACCCUGGCAUUUUCAACAGCUCGCAGUCAAG | -0.0332

Sequence | binding signal (log2 fold change)
GGUCACGUCUCAAUCAACUCAUUCUCCAGGGAAAGCCCUGGUAAACUCAACAGCUCGCAGUCAAG | -0.0914
GGUCACGUCUCAAUCAACUCACACGAGGGGGGGAAAACCCCUUUGCCCUCAUAUUCAACAGCUCGCAGUCAAG | 0.0682
GGUCACGUCUCAAUCAACUCCCUCGAGGGGGGGAAAACCCCUUUACCCUCAUCCUCAACAGCUCGCAGUCAAG | -0.196
GGUCACGUCUCAAUCAACUCUUCCCCAGGAGUUUCCUCCUGCAAUUUCAACAGCUCGCAGUCAAG | -0.00681
GGUCACGUCUCAAUCAACUCAUCUUCCAGGGAAAACCCUGGUUAACUCAACAGCUCGCAGUCAAG | 0.0985
GGUCACGUCUCAAUCAACUCAUCCUCCAGGGAAAACCCUGGCAUUCUCAACAGCUCGCAGUCAAG | -0.0339
GGUCACGUCUCAAUCAACUCAAUUUCAGGAGUUUGCUCCUGCAUUUUCAACAGCUCGCAGUCAAG | 0.202
GGUCACGUCUCAAUCAACUCUACUUCAGGAGUUUACUCCUGUUAUUUCAACAGCUCGCAGUCAAG | -0.34
GGUCACGUCUCAAUCAACUCUACGCCAGGAGUUUUCUCCUGUAAUCUCAACAGCUCGCAGUCAAG | 0.103
GGUCACGUCUCAAUCAACUCAAUUUCCAGGGAAAGCCCUGGCUAACUCAACAGCUCGCAGUCAAG | -0.0418
GGUCACGUCUCAAUCAACUCUUCUUCCAGGGAAACCCCUGGUUUUUUCAACAGCUCGCAGUCAAG | -0.329
GGUCACGUCUCAAUCAACUCAGUCCCCAGGGAAAUCCCUGGCAUUUUCAACAGCUCGCAGUCAAG | -0.0492
GGUCACGUCUCAAUCAACUCAAUCCCAGGAGUUUCCUCCUGCAAUCUCAACAGCUCGCAGUCAAG | 0.178
GGUCACGUCUCAAUCAACUCAGUCUCCAGGGAAAACCCUGGUUAAUUCAACAGCUCGCAGUCAAG | -0.165
GGUCACGUCUCAAUCAACUCAAUAGAGGGGGGGAAAACCCCUUUACCCUCAUUAUCAACAGCUCGCAGUCAAG | 0.128
GGUCACGUCUCAAUCAACUCAAUUUCCAGGGAAAGCCCUGGCAUACUCAACAGCUCGCAGUCAAG | -0.0457
GGUCACGUCUCAAUCAACUCUUUCUCCAGGGAAACCCCUGGUAUACUCAACAGCUCGCAGUCAAG | 0.258
GGUCACGUCUCAAUCAACUCAUCUCCAGGAGUUUGCUCCUGUAUUCUCAACAGCUCGCAGUCAAG | 0.0375
GGUCACGUCUCAAUCAACUCAAUCGAGGGGGGGAAAACCCCUUUGCCCUCAUCUUCAACAGCUCGCAGUCAAG | 0.419
GGUCACGUCUCAAUCAACUCUUCCCCAGGAGUUUCCUCCUGUAUUCUCAACAGCUCGCAGUCAAG | 0.144
GGUCACGUCUCAAUCAACUCAUCGGCCAGGGAAAACCCUGGGAAUCUCAACAGCUCGCAGUCAAG | -0.194
GGUCACGUCUCAAUCAACUCUUCUCCAGGAGUUUCCUCCUGCAUUUUCAACAGCUCGCAGUCAAG | -0.0682
GGUCACGUCUCAAUCAACUCUCACGAGGGGGGGAAAACCCCUUUACCCUCAUUUUCAACAGCUCGCAGUCAAG | 0.246

— paper PMC5892938
